Results as given in paper PMC4336329 (PLoS ONE, 2015).
The campaign covered roughly 310,000 compounds. About 2,200 (0.71%) showed an effect of 50% or more. Effects have a minus sign here. The list shows a part of the results.

Molecular target: human ether-à-go-go-related gene (hERG) potassium channel (human, UniProt Q12809)
Experiment: primary screen, population patch clamp on CHO cells stably expressing hERG

Sequence of human ether-à-go-go-related gene (hERG) potassium channel (Q12809 whole entry, looked up): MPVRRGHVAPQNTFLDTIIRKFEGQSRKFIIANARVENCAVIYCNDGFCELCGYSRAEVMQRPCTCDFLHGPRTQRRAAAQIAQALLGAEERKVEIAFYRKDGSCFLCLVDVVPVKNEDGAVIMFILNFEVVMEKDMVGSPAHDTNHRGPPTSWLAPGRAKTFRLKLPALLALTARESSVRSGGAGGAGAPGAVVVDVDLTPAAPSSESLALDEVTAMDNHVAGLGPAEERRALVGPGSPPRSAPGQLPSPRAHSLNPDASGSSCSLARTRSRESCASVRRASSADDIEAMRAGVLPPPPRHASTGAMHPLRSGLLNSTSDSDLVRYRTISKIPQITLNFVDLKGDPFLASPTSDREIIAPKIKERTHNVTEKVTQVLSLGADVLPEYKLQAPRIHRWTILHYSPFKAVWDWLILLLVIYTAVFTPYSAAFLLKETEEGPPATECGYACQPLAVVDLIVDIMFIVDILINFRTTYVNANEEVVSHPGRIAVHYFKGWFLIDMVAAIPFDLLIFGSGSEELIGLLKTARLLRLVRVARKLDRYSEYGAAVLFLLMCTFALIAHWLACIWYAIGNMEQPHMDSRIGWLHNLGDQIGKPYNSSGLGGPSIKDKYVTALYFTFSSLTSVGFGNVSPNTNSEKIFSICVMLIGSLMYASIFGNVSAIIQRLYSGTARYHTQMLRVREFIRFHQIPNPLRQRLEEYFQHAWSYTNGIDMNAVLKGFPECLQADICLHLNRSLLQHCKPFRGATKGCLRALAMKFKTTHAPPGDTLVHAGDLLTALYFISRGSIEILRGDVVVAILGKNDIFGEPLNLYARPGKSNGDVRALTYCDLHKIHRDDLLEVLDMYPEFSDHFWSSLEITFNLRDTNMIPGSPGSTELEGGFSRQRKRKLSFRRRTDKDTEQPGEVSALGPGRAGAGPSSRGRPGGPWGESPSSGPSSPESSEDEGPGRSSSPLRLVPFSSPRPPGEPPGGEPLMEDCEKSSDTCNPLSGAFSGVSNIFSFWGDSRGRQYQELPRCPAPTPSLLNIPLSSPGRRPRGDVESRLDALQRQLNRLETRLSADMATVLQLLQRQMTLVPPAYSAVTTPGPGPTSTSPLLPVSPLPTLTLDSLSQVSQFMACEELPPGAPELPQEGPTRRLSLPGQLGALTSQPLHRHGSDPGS

Compound | hERG current change (%, negative = inhibition) at 1uM
O=C(C(=O)N1CCCCCC1)c1c[nH]c2ccccc12 | 11.5%
CCOc1cccc(N2C(=O)CC(N3CCN(c4nc5ccccc5s4)CC3)C2=O)c1 (stereo not shown) | 13.8%
O=C1CCCN1CCC1CCN(C2CC(=O)N(Cc3ccc(N4CCCC4=O)cc3)C2=O)CC1 (stereo not shown) | 16.5%
CCOc1ccc(NCCC(O)c2ccc(F)cc2)cc1 (stereo not shown) | 17%
CCOc1cccc(=[NH+]C2CCCCC2)c2c(C)[nH]c(C)c12.[O-][Cl+3]([O-])([O-])[O-] | -33.4%
CCOc1cc(/C=C/C(=O)O)ccc1OCCOc1ccccc1 | 8.77%
CCCC(=O)n1nc(-c2ccc(C)cc2)nc1NCc1ccco1 | 7.95%
CCOP(=O)(OCC)c1nc(-c2ccc(C)cc2)oc1NCc1ccccc1 | -1.99%
CC(C)(C)c1nnc2sc(SCC(=O)N3CCc4ccccc43)nn2c1=O | 13.7%
O=C(CSC1=NC(=O)C(c2ccccc2)C(=O)N1)Nc1cccc(Cl)c1 (stereo not shown) | 13.4%
COc1ccc(C(=O)NC(Nc2ccccc2)C(Cl)(Cl)Cl)cc1 (stereo not shown) | 13.3%
O=C(CNC(=O)C(c1ccccc1)c1ccccc1)N/N=C/c1cccnc1 | 2.07%
CN(c1ccccc1)S(=O)(=O)c1cc(C(=O)OCC(N)=O)ccc1Cl | 10.6%
CCOc1ccc(C(=O)NNC2CC(=O)N(CCc3ccccc3)C2=O)cc1OC (stereo not shown) | 5.04%
N#Cc1ccccc1Sc1ccccc1C(=O)N1CCOCC1 | 6.98%
CC(=O)N1CCc2cc(Br)cc(S(=O)(=O)CCC(=O)Nc3c(C)n(C)n(-c4ccccc4)c3=O)c21 | 17.7%
CC1(C)Cc2c(sc3nc4n(-c5ccccc5)c(=O)c(CCC(=O)O)nn4c(=O)c23)CO1 | 6.7%
Nc1ccc(Nc2ccccc2)c(S(=O)(=O)O)c1 | 12.2%
COc1ccccc1C/C(N)=N/OC(=O)COc1ccccc1C | 13.5%
COc1ccc(CNC(=O)CCc2c[nH]c3ccccc23)cc1 | 20.2%
C=CCn1c(SCC(=O)c2ccccc2)nnc1-c1cc2ccccc2o1 | -3.45%
Cc1cccc(-n2c(SCC(=O)N3CCC(C(=O)O)CC3)nc3ccccc3c2=O)c1C | 3.94%

Compound | hERG current change (%, negative = inhibition) at 1uM
COc1ccc(C(=O)NCCS(=O)(=O)N2CCCCCC2)cc1 | 8.14%
Nc1nc(NC(=O)/C=C/c2ccc(F)cc2)nn1-c1ccccc1 | -6.77%
COc1cc2c(cc1OC)C(c1cc(OC)c(OC)c(OC)c1)NCC2 (stereo not shown) | 9.67%
NC(=O)c1ccccc1OCCOc1ccc(Br)cc1 | 7.05%
CCc1noc(C)c1C(=O)N(C)CC(=O)Nc1cccc(OC)c1 | 16.3%
CCC(=O)c1cc(F)c(N2CCN(S(=O)(=O)c3ccccc3)CC2)cc1C | 8.83%
CN(C)CCCN(C(=O)c1ccc2c(c1)CCCC2)c1nc2c(F)cccc2s1.Cl | -0.867%
CCCCn1nnc(NC(=O)CC23CC4CC(CC(C4)C2)C3)n1 | 4.34%
O=c1[nH]c(C(F)(F)F)nc2ccccc12 | 13.7%
CCOC(=O)c1c(NC(=O)C2CC2)sc(C)c1CC | -1.78%
CCc1ccc(-n2c(=S)sc3c(=O)n(-c4ccccc4)c(SCC(=O)O)nc32)cc1 | 15.5%
CC(=O)N(C(C)=O)c1c(N2CCCC2)c2ccccc2oc1=O | 6.2%
O=C(C/C=N/OCc1c(Cl)cccc1Cl)c1cnc(-c2ccccc2)s1 | 16.3%
COc1ccc(CN(CC(=O)NCc2ccc(F)cc2)C(=O)c2csnn2)cc1 | -23.9%
COc1cc2c(cc1OC)CN(C(=O)c1cc(S(=O)(=O)N3CCOCC3)ccc1C)CC2 | 3.88%
CN(CC(=O)NC(=O)NCc1ccco1)CC(=O)Nc1ccccc1Cl | -1.27%
COC(=O)CSc1ncccc1-c1nc2ccccc2[nH]1 | 7.42%
O=C(O)C1CC(=O)N(CCc2c[nH]c3ccccc23)C1 (stereo not shown) | 16.7%
O=C(CC1N=C(Cc2ccccc2)NNC1=O)N/N=C/c1ccc([N+](=O)[O-])cc1 (stereo not shown) | -0.829%
COc1ccc(OC)c(C(=O)NC(CC(N)=O)c2ccc(NCCOc3ccccc3)c([N+](=O)[O-])c2)c1 (stereo not shown) | 10.6%
COc1cc(CN2CCN(CCc3ccccc3)C(CCO)C2)cc(OC)c1 (stereo not shown) | -41.8%
COc1ccc(-c2csc(-c3ccc(C(=O)O)cc3)n2)cc1 | 14.1%

Compound | hERG current change (%, negative = inhibition) at 1uM
Cc1csc(NC(=O)c2c(-c3c(F)cccc3Cl)noc2C)n1 | 7.49%
O=C(c1cnn2c(-c3ccccc3)cc(-c3ccccc3)nc12)N1CCN(Cc2ccccc2)CC1 | 9.08%
Cc1ccc(/C=N/c2sc(Cc3ccccc3)c(C)c2C(N)=O)o1 | 6.35%
CCN(Cc1ccccc1)c1ccc(/C=N/N2CCOCC2)cc1 | 5.8%
Cc1ccc(OCC(=O)Nc2ccccc2Sc2ccc(Cl)cc2)c([N+](=O)[O-])n1 | 6.02%
O=C(N/N=C/c1ccc(OCC(=O)N2CCOCC2)cc1)c1ccccc1Cl | 8.33%
CCO[C@H]1OC(C(=O)NCc2ccccc2)=C[C@@H](C2CC2)[C@@H]1CCCO | 14.9%
CNc1c(NS(=O)(=O)c2ccc(OC)cc2)c(=O)oc2ccccc12 | 13.4%
CCOCCCNC(=O)C(c1ccc(OC)cc1)N(Cc1cccs1)C(=O)CNC(C)=O (stereo not shown) | 2.48%
O=C(Nc1cccc([N+](=O)[O-])c1)Nc1cccs1 | 7.66%
O=S(=O)(O)c1nc2ccccc2n1Cc1ccccc1 | 1.15%
N#Cc1ccc(NC(=O)CN2C(=O)NC(Cc3ccccc3)C2=O)cc1 (stereo not shown) | -25.3%
CC(C)(C)c1ccc(C(=O)Nc2ccc(CN3CCS(=O)(=O)CC3)cc2)cc1 | 9.75%
O=C(N/N=C/C(Cl)=C/c1ccccc1)c1ccco1 | -1.34%
Cc1nn(C)cc1CN(C)C(=O)c1sc2cccc(Cl)c2c1Cl | 4.13%
Cc1ccc(CN2CCN(C(=O)c3ccco3)CC2)cc1 | 7.98%
COc1ccc(/C=C2\SC(=O)N(CCC(=O)N3CCCCC3CCO)C2=O)cc1 (stereo not shown) | 12.9%
COc1ccccc1N1CCN(S(=O)(=O)c2c(C)ccc3nsnc23)CC1 | 4.03%
CCOc1ccc(NC(=O)CN2C(=O)COc3ccccc32)cc1 | 9.59%
COc1ccc(N2CCN(c3ccc([N+](=O)[O-])cc3Cl)CC2)cc1 | 0.487%
COc1ccc(S(=O)(=O)N2CCN(Cc3ccccc3)CC2)c(C)c1 | 9.47%
Cc1cc(C)nc(SCc2ccc(Br)cc2)n1 | 14.6%

Compound | hERG current change (%, negative = inhibition) at 1uM
COC(=O)c1ccc(N2CCS(=O)(=O)CC2)cc1 | 10%
CC(=O)[C@@]1(O)[C@H](C)CC2C3CC=C4CC(OP(=O)(O)O)CC[C@]4(C)C3CC[C@@]21C (stereo partly shown) | 19.6%
COc1ccc(S(=O)(=O)NCCc2ccccc2)c2cccnc12 | 6.51%
O=C(NCCc1c[nH]c2ccccc12)/C(=C/c1ccco1)NC(=O)c1ccco1 | -19.2%
CSc1nc2nc(C(F)(F)F)cc(-c3ccccc3)n2n1 | 12.8%
CC(C)(C)NCc1cc2ccccc2[nH]c1=O | 8.1%
CC1(C)CC(=O)c2c(O)cc(O)cc2O1 | 19.7%
CC(Cc1c[nH]c2ccccc12)NC(=O)C1CCCNC1=O (stereo not shown) | 7.37%
CCOc1ccc(C2C3=C(CCCC3=O)Nc3ccc4ncccc4c32)cc1 (stereo not shown) | -2.96%
COc1cccc(C(=O)N2CCN(C(=O)c3cccc(F)c3)CC2)c1 | 9.55%
O=C(NC1CCS(=O)(=O)C1)C1CCCN(S(=O)(=O)c2ccc(Cl)cc2)C1 (stereo not shown) | 8.62%
CCN(c1ccccc1)S(=O)(=O)c1ccc(OC)c(NC(=O)CNCC(C)O)c1.O=C(O)C(=O)O (stereo not shown) | 7.73%
COc1cccc(CNC(=O)c2ccc(NC(=O)C3CCCO3)cc2)c1 (stereo not shown) | -1.91%
O=C(Nc1ccccc1)NC1CC2CCC(C1)N2 (stereo not shown) | 3.35%
Cc1ccc(CCNC(=O)CN(C)S(=O)(=O)c2ccc3c(c2)c(=O)n(C)c(=O)n3C)cc1 | 0.354%
CC(=O)N1N=C2c3ccccc3CCC2C1c1ccc(F)cc1 (stereo not shown) | 8.1%
O=C(Cc1c(F)cccc1Cl)Nc1ccccn1 | 5.41%
CC1Oc2ccccc2N(CC(=O)N2CCCCC2)C1=O (stereo not shown) | 13.2%
Cc1cc(NC(=O)Nc2ccccc2)n(-c2ccccc2)n1 | -0.0635%
O=c1[nH]c(=O)n(CCO)c2nnn(Cc3ccccc3)c12 | 16.3%
CCOc1ccccc1NC(=O)c1ccccc1-c1nc(-c2ccccc2OC)no1 | 4.28%
Cc1cccc(NC(=O)CCNS(=O)(=O)c2cccc3nonc23)c1 | 8.19%
